The other results are listed elsewhere or left out. Sequences were assembled here from the parent chain. Values near 0.05 are background.
B1: TEV protease; numbered along this chain (parent)
chain: MGESLFKGPRDYNPISSSICHLTNESDGHTTSLYGIGFGPFIITNKHLFRRNNGTLVVQSLHGVFKVKDTTTLQQHLVDGRDMIIIRMPKDFPPFPQKLKFREPQREERICLVTTNFQTKSMSSMVSDTSCTFPSGDGIFWKHWIQTKDGQCGSPLVSTRDGFIVGIHSASNFTNTNNYFTSVPKNFMELLTNQEAQQWVSGWRLNADSVLWGGHKVFMVKPEEPFQPVKEATQL

Variants of: B1
Experiment: raw area under fraction-flipped curve 0-4 h after induction (AUC4h, not background-subtracted), DNA-recorder readout of cleavage of the substrate (dimensionless); higher = more cleavage of the substrate by the protease variant
Details: temperature: 34 °C; time window: 0-4 h after rhamnose induction
Protocol: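 In vivo DNA recorder in E. coli TOP10(DE3) ΔrhaA at 34 °C. Each TEVp single-site mutant (parent TEVp 0) is paired with a single-site variant of the 7-mer TEVs (canonical ENLYFQ|S). The substrate sits between flexible linkers in a Bxb1-sfGFP-TEVs-SsrA fusion, so cleavage stabilises Bxb1 and speeds flipping of a recombination array, read by NGS. The value is the raw area under the fraction-flipped curve over 0-4 h after rhamnose induction (AUC4h), with ≥20 reads per time point. It is not background-subtracted; inactive controls average about 0.047.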
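Further: Bxb1 expression induced with 0.2% (w/v) L-rhamnose at OD600 near 0.5, cultures sampled hourly, flipped fraction per protease–substrate barcode pair counted by paired-end Illumina sequencing.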

| Variant | area with substrate ENAYFQS | area with substrate ENCYFQS | area with substrate ENEYFQS | area with substrate ENGYFQS | area with substrate ENKYFQS | area with substrate ENNYFQS | area with substrate ENQYFQS | area with substrate ENTYFQS | area with substrate ENVYFQS | area with substrate ENDYFQS | area with substrate ENPYFQS | area with substrate ENSYFQS | area with substrate ENYYFQS | area with substrate ENFYFQS | area with substrate ENIYFQS | area with substrate ENRYFQS | area with substrate ENWYFQS | area with substrate ENHYFQS | area with substrate ENMYFQS |
| --- | --- | --- | --- | --- | --- | --- | --- | --- | --- | --- | --- | --- | --- | --- | --- | --- | --- | --- | --- |
| MGESLFKGPRDYNPISSSICHLTNESDGHTTSLYGIGFGPFIITNKHLFRRNNGTLVVQSLHGVFKVKDTTTLQQHLVDGRDMIIIRMPKDFPPFPQKLKFREPQREERICLVTTNFQTKSMSSMVSDTSCTFPSGDSIFWKHWIQTKDGQCGSPLVSTRDGFIVGIHSASNFTNTNNYFTSVPKNFMELLTNQEAQQWVSGWRLNADSVLWGGHKVFMVKPEEPFQPVKEATQL [G138S] | 0.0658 | 0.0677 | 0.0674 | 0.0786 | 0.0622 | 0.066 | 0.0672 | 0.0647 | 0.0612 |  |  |  |  |  |  |  |  |  |  |
| MGESLFKGPRDYNPISSSICHLTNESDGHTTSLYGIGFGPFIITNKHLFRRNNGTLVVQSLHGVFKVKDTTTLQQHLVDGRDMIIIRMPKDFPPFPQKLKFREPQREERICLVTTNFQTKSMSSMVSDTSCTFPSGDKIFWKHWIQTKDGQCGSPLVSTRDGFIVGIHSASNFTNTNNYFTSVPKNFMELLTNQEAQQWVSGWRLNADSVLWGGHKVFMVKPEEPFQPVKEATQL [G138K] | 0.0613 | 0.0593 |  |  | 0.0532 |  | 0.0728 |  | 0.0625 | 0.0662 | 0.0623 | 0.0711 | 0.0649 |  |  |  |  |  |  |
| MGESLFKGPRDYNPISSSICHLTNESDGHTTSLYGIGFGPFIITNKHLFRRNNGTLVVQSLHGVFKVKDTTTLQQHLVDGRDMIIIRMPKDFPPFPQKLKFREPQREERICLVTTNFQTKSMSSMVSDTSCTFPSGDGIFWKHWIQHKDGQCGSPLVSTRDGFIVGIHSASNFTNTNNYFTSVPKNFMELLTNQEAQQWVSGWRLNADSVLWGGHKVFMVKPEEPFQPVKEATQL [T147H] | 0.0681 | 0.0665 | 0.0543 | 0.0755 |  |  | 0.061 | 0.0525 | 0.0674 | 0.0671 |  | 0.0649 |  | 0.0655 | 0.0662 | 0.0577 | 0.0364 |  |  |
| MGESLFKGPRDYNPISSSICHLTNESDGHTTSLYGIGFGPFIITNKHLFRRNNGTLVVQSLHGVFKVKDTTTLQQHLVDGRDMIIIRMPKDFPPFPQKLKFREPQREERICLVTTNFQTKSMSSMVSDTSCTFPSGDGIFWKHWIQTKLGQCGSPLVSTRDGFIVGIHSASNFTNTNNYFTSVPKNFMELLTNQEAQQWVSGWRLNADSVLWGGHKVFMVKPEEPFQPVKEATQL [D149L] | 0.0784 | 0.0631 | 0.0571 |  |  | 0.0629 | 0.0886 | 0.0523 |  | 0.0654 | 0.0603 | 0.0639 | 0.052 |  | 0.0833 |  |  | 0.0673 |  |
| MGESLFKGPRDYNPISSSICHLTNESDGHTTSLYGIGFGPFIITNKHLFRRNNGTLVVQSLHGVFKVKDTTTLQQHLVDGRDMIIIRMPKDFPPFPQKLKFREPQREERICLVTTNFQTKSMSSMVSDTSCTFPSGDGIFWKHWIQTKDGQCGKPLVSTRDGFIVGIHSASNFTNTNNYFTSVPKNFMELLTNQEAQQWVSGWRLNADSVLWGGHKVFMVKPEEPFQPVKEATQL [S154K] | 0.0552 | 0.0492 | 0.0592 |  | 0.0511 |  | 0.0564 | 0.0495 | 0.062 | 0.0635 | 0.0686 | 0.0648 | 0.0647 |  |  | 0.0569 |  |  | 0.0748 |
| MGESLFKGPRDYNPISSSICHLTNESDGHTTSLYGIGFGPFIITNKHLFRRNNGTLVVQSLHGVFKVKDTTTLQQHLVDGRDMIIIRMPKDFPPFPQKLKFREPQREERICLVTTNFQTKSMSSMVSDTSCTFPSGDGIFWKHWIQTKDDQCGSPLVSTRDGFIVGIHSASNFTNTNNYFTSVPKNFMELLTNQEAQQWVSGWRLNADSVLWGGHKVFMVKPEEPFQPVKEATQL [G150D] | 0.0638 | 0.0745 | 0.0649 |  |  | 0.0524 |  | 0.0691 |  | 0.0692 |  | 0.0614 |  | 0.0605 | 0.0581 |  |  | 0.0564 | 0.0493 |
| MGESLFKGPRDYNPISSSICHLTNESDGHTTSLYGIGFGPFIITNKHLFRRNNGTLVVQSLHGVFKVKDTTTLQQHLVDGRDMIIIRMPKDFPPFPQKLKFREPQREERICLVTTNFQTKSMSSMVSDTSCTFPSGDGIFWKFWIQTKDGQCGSPLVSTRDGFIVGIHSASNFTNTNNYFTSVPKNFMELLTNQEAQQWVSGWRLNADSVLWGGHKVFMVKPEEPFQPVKEATQL [H143F] | 0.0653 | 0.0691 |  | 0.0669 |  | 0.0455 |  | 0.0531 | 0.0736 | 0.064 | 0.0665 | 0.0576 |  |  |  |  | 0.0069 |  |  |
| MGESLFKGPRDYNPISSSICHLTNESDGHTTSLYGIGFGPFIITNKHLFRRNNGTLVVQSLHGVFKVKDTTTLQQHLVDGRDMIIIRMPKDFPPFPQKLKFREPQREERICLVTTNFQTKSMSSMVSDTSCTFPSGDGIFEKHWIQTKDGQCGSPLVSTRDGFIVGIHSASNFTNTNNYFTSVPKNFMELLTNQEAQQWVSGWRLNADSVLWGGHKVFMVKPEEPFQPVKEATQL [W141E] | 0.0533 | 0.0214 | 0.0617 |  |  | 0.0514 | 0.048 | 0.0583 | 0.0227 | 0.0455 |  | 0.0576 | 0.0527 |  |  |  | 0.0464 | 0.0438 | 0.0621 |
| MGESLFKGPRDYNPISSSICHLTNESDGHTTSLYGIGFGPFIITNKHLFRRNNGTLVVQSLHGVFKVKDTTTLQQHLVDGRDMIIIRMPKDFPPFPQKLKFREPQREERICLVTTNFQTKSMSSMVSDTSCTFPSGDGIFWKHWIQTKDGQCKSPLVSTRDGFIVGIHSASNFTNTNNYFTSVPKNFMELLTNQEAQQWVSGWRLNADSVLWGGHKVFMVKPEEPFQPVKEATQL [G153K] | 0.061 | 0.052 | 0.0597 |  |  |  | 0.0535 |  |  | 0.0406 | 0.047 | 0.0281 | 0.0248 | 0.0497 |  |  |  |  |  |
| MGESLFKGPRDYNPISSSICHLTNESDGHTTSLYGIGFGPFIITNKHLFRRNNGTLVVQSLHGVFKVKDTTTLQQHLVDGRDMIIIRMPKDFPPFPQKLKFREPQREERICLVTTNFQTKSMSSMVSDTSCTFPSGDGIFWKHWIATKDGQCGSPLVSTRDGFIVGIHSASNFTNTNNYFTSVPKNFMELLTNQEAQQWVSGWRLNADSVLWGGHKVFMVKPEEPFQPVKEATQL [Q146A] | 0.0782 |  |  |  | 0.0691 | 0.0409 | 0.045 | 0.0504 | 0.104 |  | 0.0568 |  |  |  |  |  |  | 0.058 |  |

Reference: the supplement of paper PMC12217912
